The other results are listed elsewhere or left out.
T1: UNK ZnF1-3 (human, UniProt Q9C0B0 31-174)
T1 sequence: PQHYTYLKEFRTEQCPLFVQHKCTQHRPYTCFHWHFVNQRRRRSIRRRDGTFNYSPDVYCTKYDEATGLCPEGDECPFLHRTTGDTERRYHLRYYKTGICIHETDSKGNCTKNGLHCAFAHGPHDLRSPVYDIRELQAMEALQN

B1: chr19:36966019:36966020:+_ENSMUSG00000024811_ENSMUST00000025729|mus_hu|motif|central (ssRNA)
RNA: GGGAGUUCUACAGUCCGACGAUCCAUGAAAGCUAGAAAUUGAGGCCAGUAAAGAAGCUUCUUUAGUAAUCAGGACCGGUCAUAGUUAGAGCUCUUUGGAAUGUGUCUCAUACAUACAAAGGUAUCACAAAUUAAAUCUUCAGCCAACAGAGGAUUGAGCAUCA
B2: chr4:17488853:17488854:-_ENSG00000151552_ENST00000428702|hu_mus|FALSE|FALSE (ssRNA)
RNA: GGGAGUUCUACAGUCCGACGAUCUAGGCUUCCUGAGUUUGGCCGUUUGUUCCCAGUGAUCCAGUCAUGGAAGGUUUCCACCAGGAACUCUAAGGGUGUCCAGGAGCUGAAGUCUGCCUCAGGCAUUGAUUUCCUGUUCAUCGGCAACAGAGGAUUGAGCAUCA
B3: chr5:143539998:143539999:-_ENSG00000145817_ENST00000274496|hu_mus|FALSE|FALSE (ssRNA)
RNA: GGGAGUUCUACAGUCCGACGAUCAGUUCAGAAGACAGAAAUCAGGGCAAAGACUCCAUACAACAAAGCACAGGGAUAUGCCACUAAAAGUUGUUGUCCAUCCAUAGCUAAUGCAGAAAUAAAAAUUUUGGAAGCAGAAAAACUCAACAGAGGAUUGAGCAUCA
B4: chr10:90581586:90581587:-_ENSMUSG00000061904_ENSMUST00000076694|mus_mus|FALSE|FALSE (ssRNA)
RNA: GGGAGUUCUACAGUCCGACGAUCAGCUUCCAUAGGAGCCAGGGCAAUGUCAGCGAAGAAUUCAGCACUGGCAGAAGAAGCUAAAUACAGUGAUGUGCGCCACAGGUAGGUGUUUUCCUCACCAAGUAUGUUGCUAUAUAAGGCCAACAGAGGAUUGAGCAUCA
B5: chr2:179515052:179515053:+_ENSMUSG00000000305_ENSMUST00000000314|mus_hu|mus_mus_mus_hu_False|98_108 (ssRNA)
RNA: GGGAGUUCUACAGUCCGACGAUCGCUUUCCCGCGCAGUGACGGUAAACGCCACCUGCUCGGAGGGGACCUGCAGCUCCCGGGUGGCGAAGACUGUCCCAUCUGCCCCAACUUUGAAGUCCAUGCUGUUGGUCUCAUAUUGUGUCAACAGAGGAUUGAGCAUCA
B6: chr4:106585523:106585524:+_ENSMUSG00000061887_ENSMUST00000030367|mus_mus|motif|central (ssRNA)
RNA: GGGAGUUCUACAGUCCGACGAUCAGGUCUGUGCAGAUUUCUGUGCUCCUACGUGCAGUAAAUAUUCGUAGACGUAUAAAGCGGACUUUUCCCGAGCCUGCCCGUCCGAGGGCACCGCCGAGCCUUUGCCUUUGGCAAACAUGGCAACAGAGGAUUGAGCAUCA

The binders below were run against T1, UNK ZnF1-3 (assay: nsRBNS (natural sequence RNA bind-n-seq); RBNS binding buffer (assumed for nsRBNS): 25 mM Tris pH 7.5, 150 mM KCl, 3 mM MgCl2, 0.01% Triton X-100, 500 ug/ml BSA, 20 U/ml SUPERase-In, 4 C; UNK is unkempt and MSI1 is Musashi-1; names of the RNAs are library labels; protein concentration not given here; high values mean tight binding).

Row | Binder | binding signal
1 | B1 | 1.44 enrichment R
2 | B2 | 0.59 enrichment R
3 | B3 | 1.56 enrichment R
4 | B4 | 1.8 enrichment R
5 | B5 | 0.728 enrichment R
6 | B6 | 0.877 enrichment R

Source: publication PMC12136788
